# In PubChem BioAssay (NCATS):
# Inconclusive results are not listed. Unless noted, the call rests on the fitted dose curve. A structure can be active in one record and inactive in another. Some entries of the source have several records that differ or are many. They are shown here; other results are not. The source may hold further records. Values given together repeat one measurement (runs, samples, wells, individuals or studies). Marks in square brackets tell the records apart. The letters are not those of the source and start again with each entry.
# How the values were obtained:
# [1] = qHTS for Inhibitors of the Functional Ribonucleoprotein Complex (vRNP) of Lassa (LASV) Arenavirus: Viability assay - alamar blue signal for LASV Primary Screen (AID 1347083; calls by dose curve; tested in HEK293 reporter line; further: nearly all actives have a fitted effect of over 80% in size)
# [2] = qHTS for Inhibitors of the Functional Ribonucleoprotein Complex (vRNP) of Lymphocytic Choriomeningitis Arenaviruses (LCMV): Viability assay - alamar blue signal for LCMV Primary Screen (AID 1347085; calls by dose curve; tested in HEK293 reporter line; further: nearly all actives have a fitted effect of over 80% in size)
# [3] = target: Nucleoprotein (Lymphocytic choriomeningitis virus (strain Armstrong)) (UniProt P09992); experiment: qHTS for Inhibitors of the Functional Ribonucleoprotein Complex (vRNP) of Lymphocytic Choriomeningitis Arenaviruses (LCMV): LCMV Primary Screen - GLuc reporter signal (AID 1347086); further: nearly all actives have a fitted effect of over 70% in size
# Sequence of UniProt P09992 (P09992 whole entry, looked up): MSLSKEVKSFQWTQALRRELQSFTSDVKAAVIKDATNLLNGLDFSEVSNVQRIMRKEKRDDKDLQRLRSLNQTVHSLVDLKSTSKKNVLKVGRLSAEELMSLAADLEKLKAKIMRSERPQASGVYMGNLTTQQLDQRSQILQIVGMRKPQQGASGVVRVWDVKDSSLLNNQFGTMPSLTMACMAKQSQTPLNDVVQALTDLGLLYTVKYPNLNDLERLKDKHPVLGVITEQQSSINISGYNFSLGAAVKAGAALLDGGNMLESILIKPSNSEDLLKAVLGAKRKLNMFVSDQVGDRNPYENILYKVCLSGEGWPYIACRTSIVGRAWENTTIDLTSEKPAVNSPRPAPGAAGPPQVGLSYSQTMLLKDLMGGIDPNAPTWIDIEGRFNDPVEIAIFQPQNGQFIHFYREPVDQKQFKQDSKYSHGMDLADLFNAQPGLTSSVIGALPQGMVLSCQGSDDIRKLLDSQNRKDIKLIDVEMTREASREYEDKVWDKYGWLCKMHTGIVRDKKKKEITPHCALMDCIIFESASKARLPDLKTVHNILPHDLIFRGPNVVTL
# [4] = Vero cells viability qHTS for Zika virus inhibitors (AID 1347167; active means well fitted cell-killing curve with a large enough effect)
# Summary of the method: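 Cells seeded at 2.5 x 10^5 cells/mL in DMEM with 4% FBS and attached overnight at 37 degrees C, then exposed to compound for 24 to 48 hours. Viability read as ATP content by CellTiter Glo luminescence.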
# [5] = qHTS for Inhibitors of the Functional Ribonucleoprotein Complex (vRNP) of Lassa (LASV) Arenavirus: LASV Primary Screen - GLuc reporter signal (AID 1347082; calls by dose curve; tested in HEK293 reporter line; further: nearly all actives have a fitted effect of over 60% in size)
# Potency means the concentration at half of the fitted maximal effect.
structure (smiles),measurement,setting,value
O=C(N[C@H]1CN2CCC1CC2)c1ccc(Cl)cc1,Potency,[1],inactive [sample A] and active: 13.7 µM [sample B]
CC[C@@]1(O)C(=O)OCc2c1cc1n(c2=O)Cc2cc3ccccc3nc2-1,Potency,[2],inactive [sample A] and active: 344 nM [sample B] and active: 316 nM [sample C]
CC(C)c1ccc2c(c1)c(SC(C)(C)C)c(CC(C)(C)C(=O)O)n2Cc1ccc(Cl)cc1,Potency,[2],inactive [sample A] and active: 24.3 µM [sample B]
same,Potency,[3],inactive [sample A] and active: 21.7 µM [sample B]
CC1=C(O)C(=O)C=C2C1=CC=C1[C@@]2(C)CC[C@@]2(C)[C@@H]3C[C@](C)(C(=O)O)CC[C@]3(C)CC[C@]12C,Potency,[4],inactive [sample A] and active: 23.3 µM [sample B]
COC(=O)[C@@H](N)CCCN=C(N)N[N+](=O)[O-],Potency,[5],active: 38.5 µM [sample A] and inactive [sample B]
same,Potency,[1],active: 17.2 µM [sample A] and inactive [sample B]
same,Potency,[2],active: 21.7 µM [sample A] and inactive [sample B]
